Assay results reported in PMC6919601, “Identification of Plasmodium dipeptidyl aminopeptidase allosteric inhibitors by high throughput screening” (PLoS ONE, 2019).
In all, about 110,000 compounds went through this assay and about 230 (0.21%) showed an effect of 50% or more. This is one part of the list.

Target: DPAP1 (Plasmodium falciparum, UniProt Q8IIJ9)
Assay: primary screen, percent inhibition; read by cleavage of a fluorogenic dipeptide substrate; higher = more effect of the substance
Parameters: species or system P. falciparum D10 trophozoite lysates; single well
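Further: 30 min substrate incubation versus DMSO and 10 µM JCP410 controls.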

Chain of DPAP1 (Q8IIJ9 whole entry, looked up): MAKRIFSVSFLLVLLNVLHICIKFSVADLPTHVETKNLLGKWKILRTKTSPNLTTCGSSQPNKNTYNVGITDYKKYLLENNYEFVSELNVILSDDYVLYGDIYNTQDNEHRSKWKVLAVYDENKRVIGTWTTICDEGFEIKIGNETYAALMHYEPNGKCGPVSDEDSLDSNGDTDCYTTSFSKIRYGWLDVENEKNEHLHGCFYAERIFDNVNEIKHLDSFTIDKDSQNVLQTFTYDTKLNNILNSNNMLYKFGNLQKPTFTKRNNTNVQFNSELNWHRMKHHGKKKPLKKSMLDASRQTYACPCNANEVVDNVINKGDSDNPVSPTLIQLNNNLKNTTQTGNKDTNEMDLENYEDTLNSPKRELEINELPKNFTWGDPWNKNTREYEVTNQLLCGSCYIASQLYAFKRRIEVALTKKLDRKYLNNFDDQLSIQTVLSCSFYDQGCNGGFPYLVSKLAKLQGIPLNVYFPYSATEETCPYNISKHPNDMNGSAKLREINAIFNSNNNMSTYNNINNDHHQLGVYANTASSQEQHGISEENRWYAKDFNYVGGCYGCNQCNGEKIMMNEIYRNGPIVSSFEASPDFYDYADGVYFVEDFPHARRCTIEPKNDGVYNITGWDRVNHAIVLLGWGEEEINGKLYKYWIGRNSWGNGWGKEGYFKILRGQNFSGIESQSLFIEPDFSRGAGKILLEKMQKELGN

Row | SMILES | % Inhibition @ 10 uM
1 | Nc1ccc2[nH]c(-c3ccco3)nc2c1 | 5.31%
2 | C/C=C(\C)CN1CCN(c2ccccc2F)CC1 | 2.7%
3 | COc1ccccc1C1C(C#N)=C(N)Oc2[nH]nc(-c3ccccc3)c21 (stereo not drawn) | -2.78%
4 | Cc1ccc(NC(=O)c2cccc(Cl)c2)nc1 | 3.24%
5 | O=C(O)c1ccc(CNC2CCCCC2)s1 | -3.61%
6 | COc1ccc2c(c1)CCC1C2=NN(C(C)=O)C1c1ccc([N+](=O)[O-])cc1 (stereo not drawn) | 0.937%
7 | CC(C)(C)n1ncc2c(=O)n(CC(=O)c3ccc(Cl)cc3)cnc21 | -0.0309%
8 | CCOC(=O)c1ccc(CNCc2cccc(OCc3ccccc3)c2)cc1 | -5.88%
9 | COc1ccc(OC)c(CCNC(=O)C(C)n2nc(C)c3sc4ccccc4c3c2=O)c1 (stereo not drawn) | -3.93%
10 | Cc1cc(C)nc(/N=C(\N)Nc2ccc(F)cc2)n1 | -2.07%
11 | Nc1nc(CN2CCN(c3ccccc3)CC2)nc(Nc2ccccc2)n1 | -0.872%
12 | Cc1cc(C)cc(OCCCCc2c(C)n[nH]c2C)c1 | -0.569%
13 | COc1ccc(-c2csc(Nc3cccc4ccccc34)n2)cc1F | -2%
14 | Cc1ccc(C2C(C#N)=C(N)Oc3[nH]nc(-c4ccc(Br)cc4)c32)o1 (stereo not drawn) | -2.77%
15 | CC(C(=O)N1CCc2ccccc2C1)n1ncc2ccccc21 (stereo not drawn) | 2.04%
16 | CC1=C(C(=O)OCc2ccccc2)C(c2ccccc2Br)NC(=O)N1 (stereo not drawn) | -0.687%
17 | CC1=C(C(=O)OCCOC(C)C)C(c2cccc(Cl)c2Cl)CC(=O)N1 (stereo not drawn) | 4.23%
18 | Cc1c(CC(=O)NCCc2ccccc2)c(=O)oc2cc(O)c(Cl)cc12 | -2.57%
19 | Cc1cccc(C)c1NC(=O)C(NC(=O)CN1C(=O)c2ccccc2C1=O)c1ccc(Cl)cc1 (stereo not drawn) | -3.98%
20 | Cc1ccc(-c2nn(CC(=O)NCc3cccnc3)c(=O)c3ccccc23)cc1 | -5.03%
21 | COCCn1c(SCC(N)=O)nc2c(oc3ccccc32)c1=O | -4.34%
22 | CCCN1Cc2cccc(C(=O)NCc3ccc(F)cc3)c2C1=O | 1.23%
23 | COc1ccc(C2(CCNCc3ccc(N(C)C)cc3)CCOC(C)(C)C2)cc1 (stereo not drawn) | 17.5%
24 | O=[N+]([O-])c1ccc(S(=O)(=O)N2CCC(Cc3ccccc3)CC2)cc1 | 7.13%
25 | CN1CSC2=C(C#N)C(c3ccccc3)CC(=O)N2C1 (stereo not drawn) | 32.9%
26 | O=S(=O)(Nc1nccs1)c1ccc(NC(=S)Nc2ccccc2)cc1 | 1.33%

Row | SMILES | % Inhibition @ 10 uM
27 | O=S(=O)(Nc1ccccc1/N=C/C1=C(O)c2ccccc2CC1)c1ccccc1 | 3.05%
28 | c1nc(N2CCCCCC2)c2nc3n(c2n1)CCC3 | 4.28%
29 | O=C(CN1C(=O)CSc2ncccc21)NCc1ccccn1 | 1.03%
30 | CCn1c(C(O)c2cccc3ccccc23)nc2ccccc21 (stereo not drawn) | 0.345%
31 | Cc1cccc(OCCSc2ncnc3[nH]cnc23)c1 | 14.9%
32 | O=C(CSc1ccc(-c2cccs2)nn1)N1CCOCC1 | 5.85%
33 | Cc1ccc(C2=NN=C(NC(=O)C(F)(F)F)SC2)cc1 | -0.551%
34 | Cn1c2ccccc2c2c(C(=O)N3CCCCC3)cn(C3CCCCC3)c(=O)c21 | 6.59%
35 | COC(=O)c1cc2c(C)nn(-c3ccccc3)c2s1 | 4.7%
36 | CC(C)(C)c1ccc(C(=O)Nc2cccc(Cl)c2)cc1 | 0.98%
37 | O=C1c2cccc3cccc(c23)N1CN1CCN(c2ccc(F)cc2)CC1 | 1.87%
38 | Cc1ccc(-c2cc(C(=O)Nc3ccc(F)cc3)c3ccccc3n2)o1 | -1.22%
39 | COc1ccc(-n2cnc3nc(C)c(C(=O)/C=C/N(C)C)c(-c4ccccc4)c32)cc1 | -1.48%
40 | CCOc1ccc(C2C(C#N)=C(N)Oc3cc(C)n(CC4CCCO4)c(=O)c32)cc1OC (stereo not drawn) | -1.11%
41 | Cc1ccsc1-c1ncnn1-c1ccc([N+](=O)[O-])cc1 | -1.96%
42 | CCC(C(=O)Nc1nn2c(-c3ccc(OC)c(OC)c3)nnc2s1)c1ccccc1 (stereo not drawn) | -1.87%
43 | Cc1cc(O)nn2ncnc12 | 3.36%
44 | Cc1ccc(C(=O)O)cc1NC(=O)C1CCCO1 (stereo not drawn) | -7.09%
45 | CCCS(=O)(=O)c1c(S(=O)(=O)CCC)c2c3ccccc3ccn2c1C(=O)OC | 2.34%
46 | CSc1ccc(C2C(C#N)=C(N)Oc3c2ccc2ccccc32)cc1 (stereo not drawn) | 2.13%
47 | Cc1cccc(-c2nc(CSCC(=O)N3CCN(c4ccccn4)CC3)c(C)o2)c1 | 2.37%
48 | COc1cc(CNCC2CCCO2)ccc1OCc1ccccc1 (stereo not drawn) | -3.25%
49 | CC1CCC(N2CCN(CCO)CC2)C1 (stereo not drawn) | -1.41%
50 | CC1CN(C(=O)c2ccc(COc3ccc(C(C)(C)C)cc3)cc2)CC(C)O1 (stereo not drawn) | 0.413%
51 | O=[N+]([O-])c1ccc(N2CCOCC2)c2ncccc12 | 2.5%
52 | CCn1c(S)nnc1-c1ccccc1OC | -5.51%

Row | SMILES | % Inhibition @ 10 uM
53 | Cc1ccc(Cl)cc1N1CCN(C(=O)CNS(=O)(=O)c2ccccc2)CC1 | -7.08%
54 | CC(C)CCn1c(CN2CCN(CCO)CC2)nc2c1c(=O)n(C)c(=O)n2C | 2%
55 | Oc1cccc(Nc2nc(N3CCOCC3)c3ccccc3n2)c1 | 2.97%
56 | CCN(CC)c1ccc(CN2CCN(C=O)CC2)cc1 | 0.472%
57 | Cc1ccc(C)c(Cn2c3ccccc3c3cnn(CC(=O)NCC4CCCO4)c(=O)c32)c1 (stereo not drawn) | 1.8%
58 | Cc1ccc(C2CC(=O)CC(c3ccccc3)S2)cc1 (stereo not drawn) | 4.67%
59 | Cc1ccnc(NC(=O)CCC2CCCC2)c1 | 0.907%
60 | CC1(C)CC(=O)C2=C(C1)N(c1nc[nH]n1)C(N)=C(C#N)C2c1cccnc1 (stereo not drawn) | -4.61%
61 | CCC(C)C(=O)Nc1ccc(NC(=O)c2ccco2)cc1 (stereo not drawn) | 2.84%
62 | Cc1nc2ccn(Cc3cccnc3)c(=O)c2cc1C(=O)N1CCOCC1 | 0.411%
63 | CN(Cc1ccccc1)C(=O)C1CCN(c2nnc(-n3cccc3)s2)CC1 | -2.25%
64 | CCC(C)Sc1nc(O)c2cnn(-c3ccccc3)c2n1 (stereo not drawn) | 0.208%
65 | COCCCn1c(=O)c(C#N)cc2c(=O)n3ccccc3nc21 | 1.12%
66 | COc1ccccc1N(CC(=O)Nc1ccccc1Cl)S(=O)(=O)c1ccccc1 | -5.27%
67 | CC(C)NCC(O)COc1ccc(Cl)cc1 (stereo not drawn) | -3.27%
68 | Cn1nnc2sc(-c3ccccc3)cc2c1=O | 2.41%
69 | O=c1c2oc3ccccc3c2n(Cc2ccc(F)cc2)c(=O)n1Cc1ccccc1 | 2.22%
70 | CCO/C(O)=C(\C#N)c1ccc(N2CCCCC2)nn1 | 0.937%
71 | Cc1ccc(C(=O)Nc2ccc(S(=O)(=O)N3CCc4ccccc43)cc2)cc1 | -2.3%
72 | Cc1noc(NS(=O)(=O)c2ccc(NC(=O)c3ccc(C(C)C)cc3)cc2)c1C | -1.42%
73 | c1cc(-c2nc3ccccc3s2)nc(-c2nc3ccccc3s2)c1 | -4.35%
74 | CCOc1ccccc1N1CCN(C(=O)C2CC3CCC2C3)CC1 (stereo not drawn) | 4.88%
75 | O=C(Nc1ccc(Cl)c(Cl)c1)c1cc2ccccc2cc1O | 2.54%
76 | CCc1ccc(CNCC2CCCO2)cc1 (stereo not drawn) | 3.92%
77 | COc1ccc(C(=O)N(Cc2ccccc2)c2ccccn2)c(OC)c1 | -10.6%
78 | O=C1CC(NCc2ccc3c(c2)OCO3)C(=O)N1c1ccc(Br)cc1 (stereo not drawn) | -4.39%

Row | SMILES | % Inhibition @ 10 uM
79 | O=C(NCCCN1CCOCC1)C1c2ccccc2C(=O)N(C2CCCC2)C1c1cccs1 (stereo not drawn) | -5.3%
80 | O=C1C2CC=CCC2C(=O)N1CNc1cccc(Cl)c1 (stereo not drawn) | 3.65%
81 | CC(C)(C)c1ccc(-c2noc(CCC(=O)NCc3ccco3)n2)cc1 | -3.12%
82 | c1ccc(-c2n[nH]c(-c3ccccn3)n2)nc1 | 0.884%
83 | O=C(O)c1ccccc1-c1ccccc1C(=O)Nc1cnc(O)nc1O | -6.93%
84 | Cn1c(=O)c2c(ncn2CC(=N)N2CCOCC2)n(C)c1=O | 1.62%
85 | Cc1ccc(-n2nc3c(N4CCC(C(=O)N5CCC6(CC5)OCCO6)CC4)nnc(C)c3c2C)cc1 | 10.7%
86 | Cc1cc(C)cc(OCC(=O)Nc2nc(C)c(C)s2)c1 | 3.26%
87 | CC(=O)Nc1ccc(N2C(=O)C(O)=C(C(=O)c3ccc(Cl)cc3)C2c2ccccc2F)cc1 (stereo not drawn) | -0.545%
88 | CCOc1ccc(NC(=O)Nc2ccc3nsnc3c2)cc1 | -4.14%
89 | COc1cc(Cl)cc(/C=C/c2ccc3cccc(O)c3n2)c1OC | -0.85%
90 | Cc1nnc2c(Oc3ccc(Cl)cc3)nc3ccccc3n12 | -5.28%
91 | CC[C@H](NC(=O)C(CC(=O)N1CCOCC1)CS(=O)(=O)Cc1ccccc1)C(=O)c1nc2ccccc2s1 (stereo partly drawn) | 2.86%
92 | CC1Cc2cc(C(=O)C3=C(O)C(=O)N(CC4CCCO4)C3c3ccccc3)ccc2O1 (stereo not drawn) | -5.49%
93 | O=C(COc1ccccc1Cl)Nc1ccc(S(=O)(=O)N2CCc3ccccc32)cc1 | -6.05%
94 | CCOC(=O)N1CCN(C(=O)NC2(C(F)(F)F)Oc3ccc(Cl)cc3O2)CC1 (stereo not drawn) | 0.457%
95 | O=C1NN(c2ccc(Cl)c(Cl)c2)C(=O)/C1=C/c1ccc(N2CCOCC2)cc1 | -5.11%
96 | O=C(Nc1ccc(Cl)c(Cl)c1)c1ccco1 | 6.09%
97 | COc1cccc(OCC(O)CN2CCN(c3ccccn3)CC2)c1 (stereo not drawn) | 3.65%
98 | O=C(NCC1CCCO1)C1CC(c2ccc(F)cc2)=NO1 (stereo not drawn) | 1.24%
99 | Cc1nnc2sc(-c3cccc(F)c3)nn12 | -2.91%
100 | COC(=O)[C@@H](CC(C)C)NC(=O)[C@H]1CCCN1C#N | 0.744%
101 | Cc1cc(C)c(C)c(S(=O)(=O)NCC(=O)N2CC(C)CC(C)C2)c1C (stereo not drawn) | 0.709%
102 | CC(C)c1ccc(N(CC(=O)N2CCCCCC2)S(C)(=O)=O)cc1 | -14.5%
